Source: a melting point compilation (Tetko et al.; mined from patent text by program, amines drawn as free bases though some values may be those of a salt)

melting point: 158 to 161 °C
SMILES: COc1ccc2cccc(Oc3cc(-c4ccc(C(F)(F)F)cc4)ncn3)c2n1
